# Results: publication PMC12136788
# Some of the results follow.
# B1: chr1:67426168:67426278:-|CDS|ENSG00000142864|unk|FALSE|unique (ssRNA)
# RNA: GGGAGUUCUACAGUCCGACGAUCAUAAGACGAGUUGGAAGAAGACCUGAUCAACAACUUCAGGGUGAAGGGAAAAUAAUUGAUAGAAGACCAGAAAGGCGACCACCUCGUGAACGAAGAUUCGAAAAGCCACUUGAAGAAAAGCAACAGAGGAUUGAGCAUCA
# B2: chr15:49134392:49134529:-|CDS|ENSG00000166200|unk|total|mutant (ssRNA)
# RNA: GGGAGUUCUACAGUCCGACGAUCAUAUUUGCUUUCCCCGACUGAUGAUGGAGAAGAUGAUCUGAAAAAAGGUACACAGUUAUCCGAAAUAUAUGCUUUGGAAAUUCAAAUGUACACAGCACAGAAAAAUAACAAAAAACUUAACAACAGAGGAUUGAGCAUCA
# B3: chr11:130877263:130877364:-|3pUTR|ENSG00000120451|msi1|total|mutant (ssRNA)
# RNA: GGGAGUUCUACAGUCCGACGAUCCAGUCCUUUAACAACACCAGCAUGAAGGCAAAGGUGUUUUGUCAGACUGCAACAUCUAUCCGAAAGGCAAGGCAACUGGGAAUUGCUGGAGAAGGAUAAAUCAGGAGGAAUUGCUGGCCGCAACAGAGGAUUGAGCAUCA
# B4: chr1:150960872:150960973:+|CDS|ENSG00000143379|unk|total|mutant (ssRNA)
# RNA: GGGAGUUCUACAGUCCGACGAUCGGACUCCCACCCCCCAGAUCUUGGACCCCCACAUAUUCCUGUUCCUCCCUCAAUCCCUGCCGGUGGCUGCAAUCCACCUUCCUCCGAAGAGACACCCAAGAACAAGGUGGCCUCAUGGUUCAACAGAGGAUUGAGCAUCA
# B5: chr15:34751031:34752477:-|three_prime_utr|ENSG00000159248|control|control|control (ssRNA)
# RNA: GGGAGUUCUACAGUCCGACGAUCAUGACUGCUCAGACGUGGCUGUAUCCACCCUCAUUUAUGUGACCCUCACCAUUAAGAUGUAGGAUAAGACUGGAUAAAAGAAGAUUUUGCACCAAUGGGAAAGGAGGAAAAGUGGACCCACAACAGAGGAUUGAGCAUCA
# B6: chrX:48578139:48578249:+|3pUTR|ENSG00000102317|msi1_unk|total|mutant (ssRNA)
# RNA: GGGAGUUCUACAGUCCGACGAUCGUAUCAAGAACAUGAUUAUCCAGCGGUAUUUUCUAAUUCAGAUCAUCAAACUGAUUAUACCGAAGAGUUGGCUUUAAAAUGUUUGCAAAUGUCUUUUUUUUUUUAAUACUGGAAGAAAAACAACAGAGGAUUGAGCAUCA
# B7: chr2:32415436:32415554:+|CDS|ENSG00000115760|unk|FALSE|unique (ssRNA)
# RNA: GGGAGUUCUACAGUCCGACGAUCUGGGACUUUGGUUCAGUGCUUGAGGCUGCCAAAGUUUGCAGAGGAGGAGAAUCUUUGUAUAGACUCAAUAACUCCUUGUGCUGACGGAAUUCAUUUGUUGGUAGGACUGCGGACAUGCCCCAACAGAGGAUUGAGCAUCA
# B8: chr16:74623592:74623693:-|3pUTR|ENSG00000168411|msi1|total|mutant (ssRNA)
# RNA: GGGAGUUCUACAGUCCGACGAUCCCAUUAUUGUAUGUUGGAAAUUCUUAUUUUCUUUAUUUUCUGUGUGACUUUCUGGACCUCCGAGAGUGUCCUCUCAUCAUCCCGGAUGUGAGUGGGCAUCAAGCAUUUUCUGGGGAAUAUCAACAGAGGAUUGAGCAUCA
# B9: chr8:140515610:140515764:+|3pUTR|ENSG00000104472|unk|total|mutant (ssRNA)
# RNA: GGGAGUUCUACAGUCCGACGAUCUUUUGGAAUCAGUUCUUAUAAACAGCUCGAUUCAGUUUCCGCUAAAUUUACCGUUCCGGCCGUAUGUUACAUUUGAAUUUUUGUCUUAAGAAAAGUUGACUGUUCAGAUAUUUUUCUACUCAACAGAGGAUUGAGCAUCA
# B10: chr2:197486603:197486717:-|3pUTR|ENSG00000144381|unk|total|mutant (ssRNA)
# RNA: GGGAGUUCUACAGUCCGACGAUCCCACCAGAUGAGAAGUUAAGCAGCCUUUCUGUGGAGAGUGAGAAUAAUUGUGUACAAAGCCGAGAAGUAUCCAAUUAUGUGACAACCUUUGUGUAAUAAAAAUUUGUUUAAAGUUAAUAACAACAGAGGAUUGAGCAUCA
# B11: chr17:57106211:57106324:+|CDS|ENSG00000121057|unk|total|mutant (ssRNA)
# RNA: GGGAGUUCUACAGUCCGACGAUCUCAUCCCAGGUGGUGGGGCCAGUGCAGGAGGAAGAGUAUGCCGCAGAGAAGUUGCCAAGCCGGUUCAUCGAGUCGGCUCACACAGAGCUGGCAAAGGACGAUGCGGCGCCAGCACCCCCACAACAGAGGAUUGAGCAUCA
# B12: chr6:31137533:31137950:-|three_prime_utr|ENSG00000204538|control|control|control (ssRNA)
# RNA: GGGAGUUCUACAGUCCGACGAUCGCAUCUCCAGGCACCCACGCCCUCUCCACCCUCUGAUUCCCCGUGAAUUCUUCCCAAUUUAGCCUGUCUCCUUAAACCUCUUCCUCAUUCCCUCGGUUUUAUUCUGAACCCGUAAGGUGGCAACAGAGGAUUGAGCAUCA
# B13: chr5:136174412:136174513:+|CDS|ENSG00000113658|unk|total|mutant (ssRNA)
# RNA: GGGAGUUCUACAGUCCGACGAUCUAUGUUGGUGGAGAGGUGUAUGCGGAAUGCCUCAGUGACAGCAGCAUAUUUGUACAGAGCCGGAACUGCAACUUUCAUCAUGGCUUUCAUCCCACCACUGUCUGUAAGAUUCCCAGCAGCCAACAGAGGAUUGAGCAUCA
# B14: chr6:89631235:89631336:+|3pUTR|ENSG00000135299|msi1|FALSE|unique (ssRNA)
# RNA: GGGAGUUCUACAGUCCGACGAUCUGAAGUUUGAAAGCUCAGAUUAAGCAAGCCAUGCCAAGAAACUGGACGAUGUGUAAGCCUAGACUCUAAAAUUCAAGAUGUGUGAAAUAAUAUAAGUCAAAAGCAAGAAAAACGUAAUCCCAACAGAGGAUUGAGCAUCA
# B15: chr2:33399154:33399255:+|3pUTR|ENSG00000049323|msi1|total|mutant (ssRNA)
# RNA: GGGAGUUCUACAGUCCGACGAUCAAGUACUUUAUAUUUUCAGUGUUUUGUCUGAUUUUAAUGUCCGUUCUCCGCCAAGCUGCCCGCAGGUGUUAAUUGGAUCCCUUUCCUUCACUGAAAUGGAAGAGUUUAUAAGCUUACGUUCAACAGAGGAUUGAGCAUCA
# B16: chr9:134030564:134030586:-|3pUTR|ENSG00000169925|msi1_unk|FALSE|overlapping (ssRNA)
# RNA: GGGAGUUCUACAGUCCGACGAUCCCUCUGACAGUCUUUUGGGAAAGAGUAACACCCACAUACAGAAUUUGUCACAUCCAGAGUAGCACUGUUCCUUAAUACUGGCAUAAUGCUUCCAGGAAGUUUUUCUUUUUUAUAUUUAAACAACAGAGGAUUGAGCAUCA
# B17: chr15:65118290:65118391:-|3pUTR|ENSG00000090470|msi1|total|mutant (ssRNA)
# RNA: GGGAGUUCUACAGUCCGACGAUCACUUCCUUGUGUGUUGAUGGGUAAGUACACUCAAACACUGAAUACAGGUGUGUGAUGGGCCGAUUUCACAGCCCUUCUACUAACCGUGAGUGUGAAGGCAAGCUUGAUGCAAAACCUCCUCAACAGAGGAUUGAGCAUCA
# B18: chr1:226632358:226632459:-|3pUTR|ENSG00000143772|msi1|FALSE|unique (ssRNA)
# RNA: GGGAGUUCUACAGUCCGACGAUCUCAAGCCAUUUUGCCACUCGCUUCCCUGCCAUCUGGCCCUUCCCUUUGUCUCAGUGGGAUAGAUGGAUUGUGAAAUGGAAUCUCCCAGAACCCCUGCCCUGGCAGCCUGGAAGACCGUGCCAACAGAGGAUUGAGCAUCA
# B19: chr6:52752853:52752995:-|CDS|ENSG00000244067|control|control|control (ssRNA)
# RNA: GGGAGUUCUACAGUCCGACGAUCAUUGAUAUGUAUAUAGAAGGUAUAGCAGAUUUGGGUGAAAUGAUCCUUCUUCUGCCCUUUAGUCAACCUGAGGAACAAGAUGCCAAGCUUGCCUUGAUCCAAGAGAAAACAAAAAAUCGCCAACAGAGGAUUGAGCAUCA
# B20: chr8:63210610:63210711:+|3pUTR|ENSG00000185728|msi1|FALSE|unique (ssRNA)
# RNA: GGGAGUUCUACAGUCCGACGAUCCAUGAAGUAAAAAUUUAUUACUCUAGGUAUUCACUAGCUAAAUAAACAUAGUUCUUGUUUAGCAAGCAUAUGUUGUUCCUCAGCUCUUUUCUCCAGCUUUUGCAGUGUCCUGGCAUCCUUCAACAGAGGAUUGAGCAUCA
# B21: chr14:100537146:100537968:-|three_prime_utr|ENSG00000183092|control|control|control (ssRNA)
# RNA: GGGAGUUCUACAGUCCGACGAUCGCCCCGGCCAACAACGAGGAGUCUGUUCCUCCCCGCACCUCCUCUCCUCCCCAGCCCUGUAGGCCUGAGGGGAGGGUCCCCCACACCACGGUGUCCACCCGGCCCCGGCCCGUGGAACUCCAACAGAGGAUUGAGCAUCA
# B22: chr16:70532473:70532607:+|CDS|ENSG00000189091|unk|total|mutant (ssRNA)
# RNA: GGGAGUUCUACAGUCCGACGAUCCAAUGAUCCAACAGGGGAAGCAGCAGCUAAUACCCAGCAGACACUUACUUUCUAUGAGCCCGACCUUGGUUUAAAUCAUGUGGUCCGAAAAUACAGUGAACCUUUGGAGGAACACGGCAACAACAGAGGAUUGAGCAUCA
# Target: MSI1 full-length (mouse, UniProt Q61474 1-362)
# Assay: nsRBNS (natural sequence RNA bind-n-seq); RBNS binding buffer (assumed for nsRBNS): 25 mM Tris pH 7.5, 150 mM KCl, 3 mM MgCl2, 0.01% Triton X-100, 500 ug/ml BSA, 20 U/ml SUPERase-In, 4 C; UNK is unkempt and MSI1 is Musashi-1; names of the RNAs are library labels; protein concentration not given here; high values mean tight binding
# Chain of UniProt Q61474 (Q61474 whole entry): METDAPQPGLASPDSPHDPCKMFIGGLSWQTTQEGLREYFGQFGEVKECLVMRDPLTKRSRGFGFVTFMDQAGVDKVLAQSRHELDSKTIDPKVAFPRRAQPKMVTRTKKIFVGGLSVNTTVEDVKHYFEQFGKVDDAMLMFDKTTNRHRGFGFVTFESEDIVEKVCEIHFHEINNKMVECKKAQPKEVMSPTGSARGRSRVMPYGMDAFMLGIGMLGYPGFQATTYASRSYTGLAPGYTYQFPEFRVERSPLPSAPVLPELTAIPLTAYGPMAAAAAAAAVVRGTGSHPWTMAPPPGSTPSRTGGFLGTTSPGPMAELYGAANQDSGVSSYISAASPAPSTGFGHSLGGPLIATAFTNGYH
row,Binder,binding signal
1,B1,0.797 enrichment R
2,B2,0.408 enrichment R
3,B3,0.397 enrichment R
4,B4,0.496 enrichment R
5,B5,0.622 enrichment R
6,B6,0.363 enrichment R
7,B7,0.446 enrichment R
8,B8,0.405 enrichment R
9,B9,0.336 enrichment R
10,B10,2.44 enrichment R
11,B11,0.45 enrichment R
12,B12,0.944 enrichment R
13,B13,0.605 enrichment R
14,B14,0.258 enrichment R
15,B15,0.383 enrichment R
16,B16,0.734 enrichment R
17,B17,0.234 enrichment R
18,B18,1.34 enrichment R
19,B19,0.83 enrichment R
20,B20,3.2 enrichment R
21,B21,0.593 enrichment R
22,B22,0.36 enrichment R
